This is one part of the list.
target: no compound (DMSO); test: log2 fold change of degron read counts, EGFP-low vs EGFP+ sorted cells; higher = lower degron-EGFP level without compound (poor expression or instability); settings: compound: DMSO control; 18 h
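Further: jurkat cells carrying a lentiviral library of mutant zinc finger degrons fused to EGFP plus mCherry, mCherry+ cells FACS sorted, degron abundance counted by next-generation sequencing.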

| Sequence | log2 fold change of degron read counts |
| --- | --- |
| FKCEICGHAFTQKGNLLRHIKL | -1.88 |
| FICPICGHQFTQKGNLLRHIKL | -0.467 |
| FKCEICGHWFTQKGNLLRHIKL | -0.294 |
| FICPICGRHFTQKGNLLRHIKL | -0.148 |
| FECPICGHLFTQKGNLLRHIKL | -0.777 |
| FDCDVCGASFTQKGNLLRHIKL | -2.42 |
| FVCPICGRWFTQKGNLLRHIKL | 0.503 |
| FWCEICGHRFTQKGNLLRHIKL | -0.431 |
| LVCNQCGFCCTQKGNLLRHIKL | 0.156 |
| LNCPICGFCCTQKGNLLRHIKL | 0.829 |
| FKCNQCGAHFTQKGNLLRHIKL | -0.62 |
| LDCPICGFACTQKGNLLRHIKL | 0.439 |
| FMCEICGASFTQKGNLLRHIKL | -0.833 |
| FWCEVCGARFTQKGNLLRHIKL | -0.493 |
| FMCEICGHVFTQKGNLLRHIKL | -0.666 |
| FWCNQCGHGFTQKGNLLRHIKL | 0.899 |

| Sequence | log2 fold change of degron read counts |
| --- | --- |
| LKCEICGFTCTQKGNLLRHIKL | -0.837 |
| LKCEICGFQCTQKGNLLRHIKL | -0.541 |
| FWCDICGASFTQKGNLLRHIKL | -1.72 |
| FKCPICGRQFTQKGNLLRHIKL | -0.589 |
| FNCEICGHRFTQKGNLLRHIKL | -0.805 |
| LYCNQCGFCCTQKGNLLRHIKL | 1.17 |
| LHCNQCGFGCTQKGNLLRHIKL | 1.06 |
| FNCPICGRRFTQKGNLLRHIKL | -0.312 |
| LCCEICGFQCTQKGNLLRHIKL | -1.3 |
| LQCNQCGFMCTQKGNLLRHIKL | 0.341 |
| FMCNQCGALFTQKGNLLRHIKL | 0.226 |
| FYCNQCGAFFTQKGNLLRHIKL | 0.703 |
| FCCEICGRFFTQKGNLLRHIKL | -0.424 |
| FCCNVCGAGFTQKGNLLRHIKL | -0.224 |
| FVCNQCGHMFTQKGNLLRHIKL | -0.608 |
| FWCEICGHSFTQKGNLLRHIKL | -0.679 |

Source: the supplement of paper PMC12645437, “Orthogonal IMiD-Degron Pairs Induce Selective Protein Degradation in Cells” (ACS Chemical Biology, 2025)
